# In the supplement of paper PMC3334620:
# In all, about 33,000 sequences were measured (“E-score (-0.5 to 0.5)”: median about -0.012, highest 2% from about 0.27 on). The list shows a part of the results.
# Target: T1, Vhr1 (UniProt P40522)
# T1 sequence: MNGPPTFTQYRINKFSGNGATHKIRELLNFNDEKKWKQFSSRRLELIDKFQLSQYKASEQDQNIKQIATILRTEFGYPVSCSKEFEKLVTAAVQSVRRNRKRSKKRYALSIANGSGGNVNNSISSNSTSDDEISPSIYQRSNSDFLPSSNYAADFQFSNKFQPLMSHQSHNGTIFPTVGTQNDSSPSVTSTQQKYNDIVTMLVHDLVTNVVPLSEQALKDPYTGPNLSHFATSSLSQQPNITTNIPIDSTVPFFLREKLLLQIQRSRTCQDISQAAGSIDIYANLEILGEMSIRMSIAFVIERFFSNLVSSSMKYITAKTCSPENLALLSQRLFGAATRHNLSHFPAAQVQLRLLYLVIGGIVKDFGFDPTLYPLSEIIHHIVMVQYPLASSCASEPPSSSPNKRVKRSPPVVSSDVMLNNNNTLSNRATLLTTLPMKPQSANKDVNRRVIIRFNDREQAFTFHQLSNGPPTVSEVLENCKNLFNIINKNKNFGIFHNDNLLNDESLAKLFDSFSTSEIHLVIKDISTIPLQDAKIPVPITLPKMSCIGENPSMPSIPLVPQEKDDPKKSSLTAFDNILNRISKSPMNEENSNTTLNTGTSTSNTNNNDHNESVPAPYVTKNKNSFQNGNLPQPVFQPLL
# Test: PBM E-score (8-mer binding enrichment) (E-score (-0.5 to 0.5)); higher = stronger / more preferred TF binding; most listed sequences are background and not binding sites
# Settings: protein concentration: 200 nM; construct: GST-full length
# Method in brief: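 GST-tagged yeast TFs (full-length or DNA-binding domain) were made by PURExpress in vitro transcription/translation and applied at about 100-200 nM to universal all-10-mer Agilent arrays. The arrays were made double-stranded by primer extension, on fresh or once-stripped slides. Bound protein was detected with fluorescent anti-GST, and scans were normalised with masliner. Each ungapped eight-base word, pooled with its reverse complement, received an E-score (modified Wilcoxon-Mann-Whitney statistic) from the Universal PBM Analysis Suite.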
row,Sequence,PBM E-score
1,CTTAATTA,-0.0565
2,CAGACTAC,0.136
3,CAACCTTA,-0.104
4,ATAGACTC,0.0405
5,CAAGCCAA,0.0231
6,GAGTAGCA,0.03
7,AGTACAAG,0.193
8,AACACCAA,0.0981
9,ATCATTTC,0.0295
10,ATACAACG,-0.0554
11,CTAAAACC,-0.253
12,CGGCCTAG,-0.0469
13,ACGTACGT,-0.17
14,ACTACTCA,0.238
15,ACCGAGCG,0.206
16,CGCGTCGA,0.147
17,ACAGCACG,0.118
18,AAAGGCAC,-0.227
19,CGTCTGAA,-0.185
20,AATTTTAA,-0.176
21,GGTTCGCA,0.0758
22,CTGGCTTA,-0.0672
23,CTGTACCC,-0.0212
24,GGTAAAGA,-0.163
25,AATGAGTA,0.223

row,Sequence,PBM E-score
1,GCGGTGCA,-0.097
2,ATAGCCAA,0.145
3,ATTAAATG,0.0219
4,AACTGGGT,-0.041
5,AAATGCCC,-0.224
6,ACCTTCCG,0.0124
7,ACGATTTG,0.141
8,CTATTAGC,0.0772
9,CCAAGTTA,-0.0722
10,TTCCGAAA,-0.158
11,ATTTAATC,0.158
12,GGAATAAA,-0.214
13,CGGACCTA,-0.036
14,GGGTCCAA,-0.138
15,ATCATAAA,0.0452
16,TAAGTACA,-0.0281
17,ACACTCCC,0.0331
18,CATTTTCA,-0.0121
19,CAGGAATA,0.026
20,GGTCCGTA,-0.127
21,ATCAGCAG,0.236
22,ACAGCGTC,0.204
23,AGGAGCCT,-0.267
24,CACTGGAG,-0.0471
25,ACATCCGG,0.0894

row,Sequence,PBM E-score
1,GCTTGGGA,-0.0668
2,CGGACGCC,-0.062
3,AATGGCCT,-0.0853
4,GGATGGAA,-0.132
5,ATCGCGGG,0.157
6,AGTCTGAG,0.0939
7,AGTTAAGG,-0.0492
8,ACATAGCA,0.0916
9,CTATTTAA,-0.231
10,ACTGCTCG,-0.0151
11,TAGGAATA,-0.103
12,CCGTATAG,-0.035
13,GTCTTTAA,-0.129
14,ATTTTATG,0.0686
15,CTACGTGC,0.00688
16,CCAGTACG,0.0275
17,GCAGAAGA,-0.184
18,AGACATAA,0.0468
19,CGGGCCGA,-0.00376
20,CCGAATGC,-0.0649
21,TCCTAGCA,-0.145
22,TTCAAGAA,-0.231
23,GGTTGTAA,-0.0284
24,AGTCAGGA,0.355
25,AGGGAAGC,-0.139

row,Sequence,PBM E-score
1,TCGAGAAA,-0.1
2,GCGGGGAA,0.198
3,CTGCCAAG,-0.221
4,AGAAAAAG,-0.166
5,GAAGGCCC,-0.291
6,CCTTCCCG,-0.0561
7,AATGTTCA,0.0227
8,CAAGAAGG,-0.0484
9,GTGGACCA,0.0132
10,CGGGGGCC,-0.00988
11,CACTCTGC,0.108
12,AGACTGAT,0.00223
13,GGTCGGTA,-0.0355
14,CGTCAAGC,-0.147
15,GTCCGTGA,0.0595
16,AGGACTAG,0.0539
17,GATGCACC,-0.0933
18,GATTGCCC,-0.165
19,CGTTTGTC,0.00711
20,CTAACCAC,0.114
21,ACTGCTTC,-0.0428
22,TATCGGAA,-0.0585
23,GTCGCTTA,-0.114
24,GTGCCCTA,-0.252
25,AATCCCAG,0.0917

row,Sequence,PBM E-score
1,CTAGCGAC,-0.00899
2,AGTCCATC,-0.0289
3,GAGTACGA,0.234
4,GCCATGGA,0.0483
5,TCGGCTCA,-0.0779
6,GCAGTATA,0.0737
7,CGTCGCGA,0.181
8,ACCTGGCT,0.054
9,AACATGAC,0.257
10,CGACGTAA,-0.0016
11,GTCCCCGA,-0.0721
12,CGACTCAA,0.386
13,ACCGGTAT,-0.0468
14,CACAGCAA,0.204
15,ACTGCTAT,0.136
16,CGGTAAAC,-0.115
17,AAGGTGGA,-0.0152
18,AATGGCGC,-0.182
19,ATCCTGAA,0.194
20,AGACATCG,0.0974
21,CGATTACA,-0.0503
22,ATGCCAAA,-0.0835
23,AACTCGCG,0.172
24,CTAATACC,-0.0756
25,GCCTACTA,0.152

row,Sequence,PBM E-score
1,ATTAGTTG,0.0201
2,ACTAGTCC,0.133
3,GGGTAAGA,0.0216
4,TACCATCA,0.0508
5,CGCTTTGA,-0.121
6,AGGGGACC,-0.0666
7,ATAATAAA,0.0623
8,TAGACTCA,0.221
9,ACTCGGTC,0.0948
10,GCGCAAGC,0.131
11,ACGCTTAA,-0.13
12,ACACCAGC,-0.0125
13,AGCTGATA,-0.105
14,AAAAAGAC,-0.239
15,TCAGACGA,0.137
16,CTAAGTAC,-0.0397
17,AAGAGGAC,-0.0872
18,CACATCAC,0.0638
19,GCATAAAC,0.0187
20,CACTAAGA,0.0295
21,CGGGCCAA,-0.158
22,ATCCTGTC,0.177
23,ATAGCTCA,0.0225
24,AACATAGT,0.182
25,GACATTGC,-0.114

row,Sequence,PBM E-score
1,ATATTTAA,0.159
2,ATGGTCCC,-0.0815
3,CGGTACTC,0.176
4,TCACCCGA,0.141
5,AGAGCAAT,-0.117
6,AAGAGCGG,0.0833
7,CACCTTTC,-0.192
8,ATCGTAAA,-0.0323
9,GGCGTGTA,0.037
10,CTGGGTGA,0.275
11,GCAACGCA,-0.243
12,ACGTAGCT,0.0213
13,GCAGCGCC,-0.0717
14,CGGTGTCC,-0.121
15,ACTTTTTA,-0.0921
16,AAGATAAC,0.0252
17,TGCCCTAA,-0.269
18,ACTCTAAT,0.0306
19,GATCCTCC,-0.167
20,GCAGCAAA,0.0207
21,ACTCCAAC,0.106
22,CGGGGGGC,-0.102
